# Article PMC3040668
# Amino acid sequences for entries named in this document (tags omitted).
# UniProt Q07812: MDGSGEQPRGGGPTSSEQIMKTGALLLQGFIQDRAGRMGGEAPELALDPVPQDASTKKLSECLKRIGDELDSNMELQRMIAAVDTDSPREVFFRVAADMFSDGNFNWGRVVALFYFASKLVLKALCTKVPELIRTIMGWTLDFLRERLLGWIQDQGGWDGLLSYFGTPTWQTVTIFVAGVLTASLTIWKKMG
# Results are given in words; binding and its absence hold for the method and conditions named. Binding seen in cells or lysates may run through a third protein. Some binding calls cover weakened binding; strength is not graded here.
# Experiments:
# [1] = target: T1, Rubella virus capsid protein (in cells infected with the M33 strain) (Rubella virus (M33 strain)) (UniProt P08563); experiment: co-IP; lysates of A549 cells infected with RV (M33), staurosporine for 0 to 6 h from 42 h; IP with antibodies to capsid, Bax or Bak overnight at 4°C, immunoblot; lysis in 1% CHAPS or 1% NP-40 buffer with 150 mM NaCl
# T1 sequence: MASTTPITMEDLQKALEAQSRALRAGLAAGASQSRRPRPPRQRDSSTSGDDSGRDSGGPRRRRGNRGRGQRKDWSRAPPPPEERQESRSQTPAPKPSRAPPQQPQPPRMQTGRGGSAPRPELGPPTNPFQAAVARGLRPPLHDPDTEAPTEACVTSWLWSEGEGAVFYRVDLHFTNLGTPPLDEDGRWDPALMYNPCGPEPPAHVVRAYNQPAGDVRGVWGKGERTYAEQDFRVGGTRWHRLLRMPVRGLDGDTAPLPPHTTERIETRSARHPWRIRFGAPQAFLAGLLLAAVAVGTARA
# [2] = target: Bax (human (endogenous in A549)) (UniProt Q07812); experiment: co-IP; lysates of A549 cells transiently expressing capsid constructs; IP with rabbit anti-Bax under non-denaturing conditions, immunoblot with goat anti-RV and mouse anti-Bax
Substance,binding [1],binding [2]
Bax (from UniProt Q07812 1-192),binds,–
CapNT (amino acid residues 1-152 of Rubella virus capsid) (from UniProt P08563 1-152) (domain or fragment),–,no binding
CapΔRSP (amino acid residues 1-267 of Rubella virus capsid) (from UniProt P08563 1-267) (domain or fragment),–,no binding
